Laboratory results taken from the BET-seq Pho4 binding data (Le et al. 2018).
This is one part of the list. Values were computed here from the reads of four pooled replicates and scatter widely.

The sequences below were run against T1, Pho4 (S. cerevisiae) (UniProt P07270) (assay: relative binding free energy (BET-seq); higher = weaker binding). Settings: reference: library average.
T1 sequence: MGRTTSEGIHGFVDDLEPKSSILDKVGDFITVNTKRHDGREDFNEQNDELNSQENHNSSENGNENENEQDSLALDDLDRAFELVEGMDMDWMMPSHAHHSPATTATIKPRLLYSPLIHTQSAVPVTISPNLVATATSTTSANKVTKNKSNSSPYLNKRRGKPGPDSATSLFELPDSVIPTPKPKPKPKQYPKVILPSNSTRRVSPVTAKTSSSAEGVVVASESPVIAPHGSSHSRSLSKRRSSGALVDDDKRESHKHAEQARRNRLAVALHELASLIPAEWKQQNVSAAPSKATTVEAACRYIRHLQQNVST
GTGAGCACGTGACGGT was tested, and the “relative binding free energy” value was 0.06 kcal/mol. With CGTTTCACGTGAAGTT the “relative binding free energy” value was 0.46 kcal/mol. With TTCTTCACGTGGTCAT the “relative binding free energy” value was 0.31 kcal/mol. With TGTGACACGTGTGGGT the “relative binding free energy” value was 0.04 kcal/mol. In the case of GTAAGCACGTGGTTAG, the “relative binding free energy” value is reported as -0.28 kcal/mol. For AGAATCACGTGGGCAT, the “relative binding free energy” value was 0.15 kcal/mol. With GTTTCCACGTGAGGAG the “relative binding free energy” value was 0.35 kcal/mol. In the case of TGGGTCACGTGAAGTA, the “relative binding free energy” value is reported as 0.37 kcal/mol. AATTTCACGTGTGCTG was tested, and the “relative binding free energy” value was 0.43 kcal/mol. For GGATACACGTGATAGT, the “relative binding free energy” value was 0.18 kcal/mol. TGGGGCACGTGAATGG was tested, and the “relative binding free energy” value was 0.22 kcal/mol. With AATCGCACGTGGCTGG the “relative binding free energy” value was -0.09 kcal/mol. For GTGGGCACGTGTGTTG, the “relative binding free energy” value was -0.04 kcal/mol. For AAGTACACGTGAGGAT, the “relative binding free energy” value was 0.34 kcal/mol. For TTGGCCACGTGGCAGG, the “relative binding free energy” value was -0.12 kcal/mol. In the case of TTTATCACGTGAAAGT, the “relative binding free energy” value is reported as 0.33 kcal/mol. GTACGCACGTGAGGGG was tested, and the “relative binding free energy” value was 0.16 kcal/mol. TGAGACACGTGTTGGT was tested, and the “relative binding free energy” value was 0.03 kcal/mol. GTATTCACGTGCTGTC was tested, and the “relative binding free energy” value was 0.27 kcal/mol. With ATAGGCACGTGTATGC the “relative binding free energy” value was -0.09 kcal/mol. With GATGTCACGTGATGTT the “relative binding free energy” value was 0.3 kcal/mol. AAGGTCACGTGGGGAG was tested, and the “relative binding free energy” value was 0.07 kcal/mol. For TGCGGCACGTGCGGGA, the “relative binding free energy” value was -0.14 kcal/mol. TATGTCACGTGGTTCA was tested, and the “relative binding free energy” value was 0.1 kcal/mol. For TTTAGCACGTGCGAAG, the “relative binding free energy” value was 0.01 kcal/mol. In the case of CGATTCACGTGTTCGT, the “relative binding free energy” value is reported as 0.31 kcal/mol. With ACTGGCACGTGGAGTA the “relative binding free energy” value was -0.14 kcal/mol. CAGGGCACGTGGGGGA was tested, and the “relative binding free energy” value was -0.25 kcal/mol. GTACGCACGTGTGGCG was tested, and the “relative binding free energy” value was 0.01 kcal/mol. With ATTTGCACGTGAGAGT the “relative binding free energy” value was 0.26 kcal/mol. For TCGGGCACGTGCTTAT, the “relative binding free energy” value was -0.01 kcal/mol. AGGAGCACGTGGGCAG was tested, and the “relative binding free energy” value was -0.26 kcal/mol. With TAATTCACGTGTTGAT the “relative binding free energy” value was 0.09 kcal/mol. TGCAACACGTGTGGTT was tested, and the “relative binding free energy” value was 0.07 kcal/mol. With TTTGTCACGTGTGCAC the “relative binding free energy” value was -0.04 kcal/mol. With TGTTTCACGTGGCATG the “relative binding free energy” value was 0.16 kcal/mol. For TAAGGCACGTGAGTGG, the “relative binding free energy” value was 0.09 kcal/mol. With GGCTTCACGTGATAGG the “relative binding free energy” value was 0.43 kcal/mol. For GCTGTCACGTGAGGGG, the “relative binding free energy” value was 0.38 kcal/mol. For TGGCGCACGTGGAGCT, the “relative binding free energy” value was -0.11 kcal/mol. With GAAGGCACGTGGTGTG the “relative binding free energy” value was -0.22 kcal/mol. In the case of GGCAACACGTGGTATA, the “relative binding free energy” value is reported as 0.18 kcal/mol. In the case of GTGAGCACGTGCGTTG, the “relative binding free energy” value is reported as -0.11 kcal/mol. For GGGAGCACGTGTCTTT, the “relative binding free energy” value was 0.1 kcal/mol. In the case of GTAGTCACGTGAGGCT, the “relative binding free energy” value is reported as 0.35 kcal/mol. In the case of GATGGCACGTGGACGG, the “relative binding free energy” value is reported as -0.09 kcal/mol. In the case of AGTCTCACGTGGAGGA, the “relative binding free energy” value is reported as 0.13 kcal/mol. For TAAGTCACGTGGTTAG, the “relative binding free energy” value was 0.04 kcal/mol. For TGGTGCACGTGTAGCA, the “relative binding free energy” value was -0.03 kcal/mol. For TGCCTCACGTGCTGGT, the “relative binding free energy” value was 0.16 kcal/mol. For CGGAACACGTGAATGT, the “relative binding free energy” value was 0.42 kcal/mol. For CTAAGCACGTGGCGGG, the “relative binding free energy” value was -0.17 kcal/mol. With AGGAGCACGTGTGTTC the “relative binding free energy” value was 0.03 kcal/mol. For TAGATCACGTGAGTCA, the “relative binding free energy” value was 0.35 kcal/mol. With GGTAACACGTGAGGGT the “relative binding free energy” value was 0.32 kcal/mol. For TGCAGCACGTGAGGGT, the “relative binding free energy” value was 0.11 kcal/mol. In the case of TGGAGCACGTGGGAAA, the “relative binding free energy” value is reported as 0.13 kcal/mol. With TGGGACACGTGACATT the “relative binding free energy” value was 0.28 kcal/mol. With AGTCTCACGTGTTATA the “relative binding free energy” value was 0.18 kcal/mol. CTAGGCACGTGAGCGG was tested, and the “relative binding free energy” value was 0.08 kcal/mol. In the case of TGATTCACGTGCTTTA, the “relative binding free energy” value is reported as 0.21 kcal/mol. With TATGTCACGTGTGTTT the “relative binding free energy” value was 0.15 kcal/mol. In the case of TTGTGCACGTGGGTGG, the “relative binding free energy” value is reported as -0.03 kcal/mol. For CGTAACACGTGGGGAT, the “relative binding free energy” value was 0 kcal/mol. ATAGTCACGTGCTGTG was tested, and the “relative binding free energy” value was 0.03 kcal/mol. TATGGCACGTGGTGTT was tested, and the “relative binding free energy” value was -0.29 kcal/mol. For TTATTCACGTGTCGAA, the “relative binding free energy” value was 0.19 kcal/mol. For TGGAGCACGTGATTTA, the “relative binding free energy” value was 0.08 kcal/mol. For TATGTCACGTGTGCGA, the “relative binding free energy” value was -0.13 kcal/mol. AGGGCCACGTGAAGTG was tested, and the “relative binding free energy” value was 0.11 kcal/mol. In the case of ATGGCCACGTGTTGGG, the “relative binding free energy” value is reported as -0.02 kcal/mol. GGAGGCACGTGGGGTG was tested, and the “relative binding free energy” value was -0.24 kcal/mol. In the case of GAAGTCACGTGGTGTA, the “relative binding free energy” value is reported as 0.08 kcal/mol. TCTGTCACGTGAGGGC was tested, and the “relative binding free energy” value was 0.18 kcal/mol. With TGTTCCACGTGGGGTA the “relative binding free energy” value was -0.11 kcal/mol. For AGGTGCACGTGTCATT, the “relative binding free energy” value was -0.01 kcal/mol. For CTATACACGTGTGGTT, the “relative binding free energy” value was 0.19 kcal/mol. With GGAGTCACGTGGCTAG the “relative binding free energy” value was 0.14 kcal/mol. In the case of GAAAGCACGTGGTGAG, the “relative binding free energy” value is reported as -0.14 kcal/mol. TTGGACACGTGGATTC was tested, and the “relative binding free energy” value was 0.11 kcal/mol. For ATAGGCACGTGATGTA, the “relative binding free energy” value was -0.04 kcal/mol. In the case of GATTTCACGTGAGTCT, the “relative binding free energy” value is reported as 0.51 kcal/mol. In the case of GGATTCACGTGCGAGG, the “relative binding free energy” value is reported as 0.28 kcal/mol. In the case of GGTAGCACGTGGGTCC, the “relative binding free energy” value is reported as -0.23 kcal/mol. With GTCAGCACGTGTGCGT the “relative binding free energy” value was -0.02 kcal/mol. For TCTGCCACGTGGGGCG, the “relative binding free energy” value was -0.18 kcal/mol. TTGATCACGTGTTGCG was tested, and the “relative binding free energy” value was 0 kcal/mol. For TGGGGCACGTGTCAGG, the “relative binding free energy” value was -0.09 kcal/mol. With AAGAGCACGTGGGGGC the “relative binding free energy” value was -0.19 kcal/mol. With ATTAGCACGTGCAAGT the “relative binding free energy” value was -0.02 kcal/mol. With CGTGTCACGTGAGGTC the “relative binding free energy” value was 0.23 kcal/mol. In the case of TGTATCACGTGAAGGC, the “relative binding free energy” value is reported as 0.41 kcal/mol. ATTTACACGTGGAATT was tested, and the “relative binding free energy” value was 0.22 kcal/mol. With ATGATCACGTGAAGAT the “relative binding free energy” value was 0.27 kcal/mol. In the case of GTGAACACGTGGGGTG, the “relative binding free energy” value is reported as -0.09 kcal/mol. TAGTGCACGTGGGTGA was tested, and the “relative binding free energy” value was -0.23 kcal/mol. For TGGGGCACGTGACATA, the “relative binding free energy” value was 0 kcal/mol. With TTTAACACGTGTCGGG the “relative binding free energy” value was 0.04 kcal/mol. For CTTAGCACGTGTTGTT, the “relative binding free energy” value was -0.05 kcal/mol. In the case of TGTTTCACGTGTTCTG, the “relative binding free energy” value is reported as 0.29 kcal/mol. For ATATGCACGTGTTGAG, the “relative binding free energy” value was -0.05 kcal/mol. For TTGGACACGTGTCCGG, the “relative binding free energy” value was 0.08 kcal/mol. With TGCTCCACGTGTGTCT the “relative binding free energy” value was 0.31 kcal/mol. In the case of GGAGTCACGTGCTGTT, the “relative binding free energy” value is reported as -0.02 kcal/mol. For TTGTACACGTGGGGCC, the “relative binding free energy” value was -0.21 kcal/mol. With TTGTGCACGTGGGCCG the “relative binding free energy” value was -0.17 kcal/mol. With TATGTCACGTGGCGTA the “relative binding free energy” value was 0.1 kcal/mol. With CGTGGCACGTGGGGTT the “relative binding free energy” value was -0.27 kcal/mol. In the case of GGGTGCACGTGAATAG, the “relative binding free energy” value is reported as 0.38 kcal/mol. TGGATCACGTGTGCTA was tested, and the “relative binding free energy” value was 0.02 kcal/mol. GATTACACGTGGTGTA was tested, and the “relative binding free energy” value was 0.06 kcal/mol. In the case of GTACGCACGTGGGCGG, the “relative binding free energy” value is reported as -0.43 kcal/mol. In the case of GAGTGCACGTGGGATA, the “relative binding free energy” value is reported as 0.1 kcal/mol. GGGTTCACGTGCCGTG was tested, and the “relative binding free energy” value was 0.32 kcal/mol. With CGGATCACGTGGCTGG the “relative binding free energy” value was 0.07 kcal/mol. With ATTGTCACGTGGATTG the “relative binding free energy” value was 0.14 kcal/mol. In the case of TTGGTCACGTGTGCCT, the “relative binding free energy” value is reported as 0.09 kcal/mol. With TGGGACACGTGGTGAG the “relative binding free energy” value was -0.11 kcal/mol. For TGCTGCACGTGATAGG, the “relative binding free energy” value was -0.06 kcal/mol. GAGCTCACGTGCGTGG was tested, and the “relative binding free energy” value was 0.18 kcal/mol. For TAGATCACGTGTTGTC, the “relative binding free energy” value was 0.22 kcal/mol. In the case of GTTCGCACGTGGTTAG, the “relative binding free energy” value is reported as -0.16 kcal/mol. For TGAATCACGTGTAGTG, the “relative binding free energy” value was 0.22 kcal/mol. With TTGTCCACGTGCTGTT the “relative binding free energy” value was 0 kcal/mol. With GCGAGCACGTGAGGGT the “relative binding free energy” value was 0.13 kcal/mol. ATTCGCACGTGATGTT was tested, and the “relative binding free energy” value was 0.04 kcal/mol. With CGAGTCACGTGAGGGA the “relative binding free energy” value was 0.14 kcal/mol. With AAGCTCACGTGGAGAG the “relative binding free energy” value was 0.38 kcal/mol. In the case of TATAGCACGTGATCGG, the “relative binding free energy” value is reported as 0.02 kcal/mol. With GTGAGCACGTGATTAT the “relative binding free energy” value was 0.01 kcal/mol. For TCGGGCACGTGAGGGT, the “relative binding free energy” value was 0.05 kcal/mol. GATGACACGTGAGCTT was tested, and the “relative binding free energy” value was 0.59 kcal/mol. ACGTTCACGTGGTGTG was tested, and the “relative binding free energy” value was 0.05 kcal/mol. For GTCAGCACGTGGTGGG, the “relative binding free energy” value was -0.08 kcal/mol. With ATTATCACGTGTTGCG the “relative binding free energy” value was 0.09 kcal/mol. TTTAACACGTGTTGGT was tested, and the “relative binding free energy” value was 0.05 kcal/mol. With GTGTGCACGTGATGGG the “relative binding free energy” value was 0.24 kcal/mol. With CTTGGCACGTGGATAT the “relative binding free energy” value was -0.11 kcal/mol. With GGTTACACGTGTTGCG the “relative binding free energy” value was 0.19 kcal/mol. In the case of AGGGACACGTGTATTG, the “relative binding free energy” value is reported as -0.11 kcal/mol. In the case of GTTAGCACGTGGCAGT, the “relative binding free energy” value is reported as 0.07 kcal/mol. With TGTTTCACGTGTATAC the “relative binding free energy” value was 0.13 kcal/mol. CAAGTCACGTGCGGGT was tested, and the “relative binding free energy” value was 0.07 kcal/mol. For AGGTTCACGTGTCATT, the “relative binding free energy” value was 0.23 kcal/mol. For CGATTCACGTGGTGGG, the “relative binding free energy” value was 0.23 kcal/mol. AAGTTCACGTGGTGCA was tested, and the “relative binding free energy” value was 0.19 kcal/mol.
